Reference: publication PMC4336329 (PLoS ONE, 2015)
Among all 310,000 compounds or so, about 14,000 (4.5%) showed an effect of 50% or more. Effects have a minus sign here. This is one part of the list.

Each molecule was assayed against human ether-à-go-go-related gene (hERG) potassium channel (human, UniProt Q12809) (assay: primary screen, population patch clamp on CHO cells stably expressing hERG).
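Note: peak tail current of the secondary pulse compared with the same well before compound.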

Chain of human ether-à-go-go-related gene (hERG) potassium channel (Q12809 whole entry, looked up): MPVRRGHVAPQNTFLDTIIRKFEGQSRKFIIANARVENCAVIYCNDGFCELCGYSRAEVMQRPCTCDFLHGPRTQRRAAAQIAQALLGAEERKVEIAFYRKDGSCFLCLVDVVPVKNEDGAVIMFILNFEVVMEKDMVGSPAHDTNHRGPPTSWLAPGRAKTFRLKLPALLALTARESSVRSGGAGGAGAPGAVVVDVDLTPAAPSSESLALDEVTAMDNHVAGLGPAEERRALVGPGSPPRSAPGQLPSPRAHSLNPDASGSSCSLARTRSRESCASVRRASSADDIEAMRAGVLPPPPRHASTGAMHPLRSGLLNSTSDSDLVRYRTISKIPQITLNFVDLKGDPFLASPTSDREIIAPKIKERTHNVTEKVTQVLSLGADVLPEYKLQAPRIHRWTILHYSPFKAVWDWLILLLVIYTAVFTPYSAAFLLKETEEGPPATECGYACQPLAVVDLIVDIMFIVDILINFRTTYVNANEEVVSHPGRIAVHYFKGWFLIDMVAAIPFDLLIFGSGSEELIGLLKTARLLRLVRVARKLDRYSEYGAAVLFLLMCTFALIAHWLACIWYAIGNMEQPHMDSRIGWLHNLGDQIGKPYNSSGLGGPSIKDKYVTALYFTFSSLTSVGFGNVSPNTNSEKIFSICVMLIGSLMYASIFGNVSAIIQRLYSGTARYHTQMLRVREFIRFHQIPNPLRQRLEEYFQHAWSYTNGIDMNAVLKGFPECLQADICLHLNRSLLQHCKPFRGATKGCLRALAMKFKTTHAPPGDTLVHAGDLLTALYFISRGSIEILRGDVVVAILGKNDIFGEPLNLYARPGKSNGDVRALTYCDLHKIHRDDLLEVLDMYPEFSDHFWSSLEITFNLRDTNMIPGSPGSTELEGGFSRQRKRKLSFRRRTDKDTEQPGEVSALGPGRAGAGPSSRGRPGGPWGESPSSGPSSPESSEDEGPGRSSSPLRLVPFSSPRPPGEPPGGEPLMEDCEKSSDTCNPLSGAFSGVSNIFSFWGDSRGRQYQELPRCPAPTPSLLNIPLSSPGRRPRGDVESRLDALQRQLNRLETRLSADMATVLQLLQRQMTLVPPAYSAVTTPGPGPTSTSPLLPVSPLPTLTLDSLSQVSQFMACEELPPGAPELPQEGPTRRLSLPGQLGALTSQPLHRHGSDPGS

SMILES | hERG current change (%, negative = inhibition) at 10uM
Cn1c(=NC(=O)C2CCN(S(=O)(=O)c3cccs3)CC2)sc2ccccc21 | 9.35%
NC(=O)c1cc(S(=O)(=O)N2CCCCC2)cs1 | 30%
O=C1NCCN1C(=O)c1ccccc1F | 8.05%
CC(=O)Nc1ccc(C2(c3ccc(NC(C)=O)cc3)NC(=O)c3ccccc32)cc1 | 4.99%
O=C(Nc1c(C(=O)N2CCOCC2)oc2ccccc12)c1ccccc1Cl | 0.111%
CCc1ccccc1NC(=O)CNC(=O)c1ccc(-n2cncn2)c([N+](=O)[O-])c1 | -4.79%
COCCCNC(=O)CNC(=S)N(Cc1cc(OC)c(OC)c(OC)c1)C1CCCC1 | -3.15%
O=C(Nc1ccc(COc2ccccc2)cc1)c1cccc([N+](=O)[O-])c1 | 21%
Cn1c(CNC(=O)c2ccco2)nnc1SCC(=O)N1CCN(c2ccccc2F)CC1 | 14.5%
CC1Oc2ccccc2N(CC(=O)NCCc2ccccc2)C1=O (stereo not drawn) | -6.26%
O=C(COC(=O)/C=C/c1ccc(C(F)(F)F)cc1)NC(=O)NCc1ccco1 | -0.129%
O=C1CC(c2ccccc2)CC(=O)N1c1ccc(C(F)(F)F)cc1 | 9.01%
Cc1cc(C(F)(F)F)nn1CC(=O)NNC(=S)Nc1ccc(Cl)cc1 | 27%
CC1=C(C(=O)OCc2ccccc2)C(c2ccccc2[N+](=O)[O-])NC(=O)N1C (stereo not drawn) | 1.71%
CC1CCN(S(=O)(=O)c2ccc(NC(=O)CNC3CCCCC3)cc2)CC1 | 12.7%
Cc1cc2oc(=O)cc(CN(C)Cc3ccccc3Cl)c2cc1C | 2.5%
O=C(O)c1c2c(nc3ccccc13)/C(=C/c1ccc(O)cc1)CC2 | 28.5%
CC1(C)C(=O)Nc2ccccc2N1C(=O)CN1C(=O)NC(CCc2ccccc2)C1=O (stereo not drawn) | 1.21%
CCCCCCCCCc1nc2sc3c(c2c(=O)n1NC(=O)c1ccccc1[N+](=O)[O-])CC(C)(C)OC3 | -10.8%

SMILES | hERG current change (%, negative = inhibition) at 10uM
Cc1cccc2c(N=NC(=O)c3ccc(NS(=O)(=O)c4cccs4)cc3)c(O)[nH]c12 | -1.32%
CCC(C)c1ccc(NC(=O)c2ccco2)cc1 (stereo not drawn) | -1.15%
c1ccc(CSc2ccc(-c3cccnc3)nn2)nc1 | 6.82%
COCCNS(=O)(=O)c1cc(C)c(C)cc1C | 0.879%
CCc1ccccc1NC(=O)CCC(=O)c1cccs1 | 17.7%
Cc1nc(NC(=O)c2cnccn2)ccc1Br | 9.16%
CNCC(=O)Nc1ccc(Cl)c(C(F)(F)F)c1 | 17.6%
C/C(=N\NC(=O)c1ccccc1)c1ccc(N2CCCCC2)cc1 | -6.48%
Cc1[nH]c(=S)[nH]c(=O)c1CCCO | 12.6%
COC(=O)C1=C(C)NC2=C(C(=O)c3ccccc32)C1c1cccc(OC)c1 (stereo not drawn) | 4.97%
CC1=Nc2cc(C(=O)N3CCC4(CC3)OCCO4)ccc2Sc2ccc(Cl)cc21 | -2.21%
Cc1ccc(-c2csc(NC3OC(=O)c4ccccc43)n2)cc1 (stereo not drawn) | 7.48%
O=C(OC1CCOC1=O)c1ccccc1C(=O)c1ccc(Cl)c([N+](=O)[O-])c1 (stereo not drawn) | 4.8%
Cc1sc2nc(SCc3ccc(C(=O)O)cc3)n(Cc3ccco3)c(=O)c2c1C | -59.2%
O=C(CSc1ncccn1)N/N=C/c1cccc([N+](=O)[O-])c1 | -32.4%
COC(=O)c1cc(-c2ccccc2)nc2nc(SC)[nH]c(=O)c12 | 6.95%
CSc1ncccc1C(=O)Nc1nc2c(C)cccc2s1 | 6.12%
Cc1c(C(=O)NCCSCc2c(Cl)cccc2Cl)cccc1[N+](=O)[O-] | 7.47%
CCOc1ccccc1N1CC(C(=O)Nc2ccc(C(=O)O)cc2)CC1=O (stereo not drawn) | 16.7%

SMILES | hERG current change (%, negative = inhibition) at 10uM
CN(CCC#N)C(=O)c1cc2c(Cl)nc3ccccc3c2s1 | 3.44%
COCCn1nnnc1C(c1ccccc1)N1CCN(C(=O)c2ccco2)CC1.Cl (stereo not drawn) | 16.7%
COc1ccc2c(COC(=O)c3cccc(S(=O)(=O)NCC(C)C)c3)cc(=O)oc2c1 | 7.67%
CCOP(=O)(OCC)c1cccc(P(=O)(c2ccccc2)c2ccccc2)c1O | 3.2%
Cc1cccc(C(=O)Nc2cccc(C(=O)NC3CCCC3)c2)c1 | -22.6%
O=C(c1ccc(S(=O)(=O)Nc2ccccc2F)cc1)N1CCC1 | -0.425%
Cl.O=C1c2cccc3c2[C@H](CCC3)CN1[C@@H]1CN2CCC1CC2 | -46.2%
COc1ccc(S(=O)(=O)CCC(=O)N2CCN(c3ccccc3F)CC2)cc1 | -8.33%
Cc1ccc(S(=O)(=O)Nc2ccc(OCC(=O)N3CCOCC3)cc2)c(C)c1NS(C)(=O)=O | 18.8%
CN1CCN(C(=S)Nc2ccc(Cl)cc2Cl)CC1 | -5.12%
COc1ccccc1NC(=O)CSc1nc2sc(C)c(C)c2c(=O)n1C | 6.42%
Cc1onc(-c2ccccc2)c1C(=O)Nc1ccc(NC(=O)c2c(-c3ccccc3)noc2C)cc1 | 14.2%
O=C(COc1ccccc1)NCC(=O)N/N=C/c1ccco1 | -9.97%
COc1nc(Nc2ccccc2F)nc(OC)n1 | -5.88%
CCN(CC)CCCN(Cc1cc2cc(OC)ccc2[nH]c1=O)C(=O)Nc1ccc(F)cc1 | -69.9%
Cc1ccccc1C(=O)Nc1ccccn1 | 3.91%
CCc1ccc(-c2csc3ncn(CC)c(=O)c23)cc1 | -12%
COc1ccc(Cl)cc1-c1nc(N)nc(NC2CCCCC2)n1 | 5.8%
Cc1ccc[n+](CC(=O)c2cc3ccccc3oc2=O)c1.[Br-] | -10.5%
